According to PubChem BioAssay AID1645887 (National Center for Advancing Translational Sciences (NCATS), 2021):
About 40 (0.2%) of roughly 16,000 compounds were called active. Another 1% or so got no clear call; they are omitted. The call rests on the fitted dose curve; in most records, active means well fitted activation curve with a large enough effect; inconclusive means small, poorly fitted or top-dose-only effect, or another doubt; inactive means no such curve, though single readings can be large or run the other way. This is one part of the list.

What follows are compounds tested against Rap guanine nucleotide exchange factor 4 (Homo sapiens) (UniProt Q8WZA2) (assay: Validation qHTS for agonist of cAMP-regulated guanine nucleotide exchange factor 4 (EPAC2)). Conditions: EPAC2 Rap1B BODIPY-GDP exchange, fluorescence; activation: stronger effect = higher value.
UniProt Q8WZA2, sequence (Q8WZA2 whole entry, looked up): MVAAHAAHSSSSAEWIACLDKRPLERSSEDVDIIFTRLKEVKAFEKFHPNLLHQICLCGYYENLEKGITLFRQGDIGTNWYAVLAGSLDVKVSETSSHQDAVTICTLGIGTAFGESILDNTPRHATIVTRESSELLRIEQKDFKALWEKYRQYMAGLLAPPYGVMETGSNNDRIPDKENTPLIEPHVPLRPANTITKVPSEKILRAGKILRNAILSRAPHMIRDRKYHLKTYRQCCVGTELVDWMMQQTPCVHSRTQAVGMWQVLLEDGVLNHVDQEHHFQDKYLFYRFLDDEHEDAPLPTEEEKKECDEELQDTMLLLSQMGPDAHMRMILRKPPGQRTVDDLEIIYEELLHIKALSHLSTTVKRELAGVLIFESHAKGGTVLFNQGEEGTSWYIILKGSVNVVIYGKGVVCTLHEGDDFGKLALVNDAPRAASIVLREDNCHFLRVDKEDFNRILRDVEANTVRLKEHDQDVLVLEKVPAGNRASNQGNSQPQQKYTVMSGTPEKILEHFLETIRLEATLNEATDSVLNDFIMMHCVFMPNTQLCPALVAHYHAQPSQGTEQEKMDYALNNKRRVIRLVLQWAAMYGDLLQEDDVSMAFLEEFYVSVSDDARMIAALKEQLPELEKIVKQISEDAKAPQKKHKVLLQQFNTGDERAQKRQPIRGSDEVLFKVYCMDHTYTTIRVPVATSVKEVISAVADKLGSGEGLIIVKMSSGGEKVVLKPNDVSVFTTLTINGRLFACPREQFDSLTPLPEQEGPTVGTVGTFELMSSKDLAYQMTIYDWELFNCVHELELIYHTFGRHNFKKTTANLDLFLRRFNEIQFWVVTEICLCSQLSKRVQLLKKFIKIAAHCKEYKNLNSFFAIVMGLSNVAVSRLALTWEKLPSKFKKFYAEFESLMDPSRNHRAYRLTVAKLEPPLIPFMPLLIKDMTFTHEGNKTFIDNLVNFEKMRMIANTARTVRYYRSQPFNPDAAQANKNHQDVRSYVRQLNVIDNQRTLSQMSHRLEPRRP
How it was run: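 Fluorescent exchange assay: 100 nM EPAC2 with 250 nM RAP1B-BODIPY-GDP and 50 uM GDP; compound added, 5 min at room temperature, then read (ex 480/em 540 nm) every 5 min for 30 min. Normalized to 6.5 mM cAMP agonist control.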
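Further: exchange makes BODIPY-GDP fluorescence drop when released from Rap1B; series mostly up to about 150 µM.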
On the % scale 0 is the no-effect control and ±100 the full control effect.

activation, inactive:
Cc1ccc(O)c(-n2nc3ccccc3n2)c1 8.07%
Cc1c(C(=O)NCC2(N3CCOCC3)CCCCC2)cnn1-c1nccc(-c2ccccc2F)n1 -9.26%
CC1(C)C(=O)C=C[C@]2(C)C1CC(=O)[C@]1(C)C2CC[C@@]2(C)C(c3ccoc3)OC(=O)C3O[C@@]321 (some centres not stated) -3.74%
O=C(O)[C@H](O)[C@@H](O)[C@H](O[C@@H]1O[C@H](CO)[C@H](O)[C@H](O)[C@H]1O)[C@H](O)CO -11.5%
COc1ccc(SCCN2CC[C@@H](O)CCC2=O)cc1 -10.1%
COc1ccc(C(=O)N2CCC3(CCCN(CC(C)C)C3)CC2)cc1 -4.57%
COc1cc2nc(CCc3nc4cc(OC)c(OC)cc4[nH]3)[nH]c2cc1OC -8.1%
COc1ccc(C(=O)O)c(O)c1OC -2.3%
COc1cc(/C=C/C(=O)N2CCCCC2=O)cc(OC)c1OC 9.48%
O=c1c(-c2ccc(F)c(F)c2)nc2cncnc2n1-c1ccccc1 -16.6%
CC1(C)O[C@@H]2C[C@H]3[C@@H]4CCC5=CC(=O)CC[C@]5(C)[C@@]4(F)[C@@H](O)C[C@]3(C)[C@]2(C(=O)CCl)O1 -15.1%
Cc1nc2cnc(N3CCNCC3)nc2n(Cc2ccc(F)cc2)c1=O -16.6%
O=C(Nc1ccc2c(c1)OCO2)O[C@@H]1C[C@H]2CCC(=O)N3CC[C@@H](C1)[C@@H]23 -10.3%
COc1cc(OC)cc(C(=O)NCC2Cc3cccc(-c4nc(C)cnc4C)c3O2)c1 (configuration not stated) -19.9%
COc1cc(=O)n2c(c1C(=O)NC(C)c1ccco1)CCN(Cc1ccccc1Cl)CC2 (configuration not stated) -1.87%
CCCC[C@H]1COCCS(=O)(=O)N1Cc1ccc(F)cc1 -39.8%
CS(=O)(=O)N1CCC2(CC1)CN(Cc1nccs1)C2 -0.541%
CCCCCCCCCCCCCCCC(=O)OC[C@H](COP(=O)([O-])OCC[N+](C)(C)C)OC(=O)CCCCCCCCCCCCCCC 5.83%
O=c1c(CCc2ccccc2)nc2cnc(Oc3cccc(Cl)c3)nc2n1C[C@H]1CCCO1 -4.94%
Cc1cc(C)cc(CN2CCOc3ccc(CN4CCC(O)(c5cccnc5)CC4)cc3C2)c1 -19.4%
COc1ccc2[nH]cc(CCNc3ccnc(-c4ccc(C(=O)N(C)C)cc4)n3)c2c1 9.65%
O=C(Nc1cccc(F)c1)N1CCC2(CC1)CCN(C(=O)c1csnn1)CC2 -3.86%
